Reference: PMC5836133
The list shows a part of the results. At the low end of the ranking the order means little.

What follows are sequences tested on T1, GST-NbGlk1(82-244) (assay: protein-binding microarray). Settings: NbGlk1 is a Golden2-like transcription factor of Nicotiana benthamiana; high values mean tight binding; most listed sequences are background and not binding sites; double strand, one strand shown.
T1 sequence: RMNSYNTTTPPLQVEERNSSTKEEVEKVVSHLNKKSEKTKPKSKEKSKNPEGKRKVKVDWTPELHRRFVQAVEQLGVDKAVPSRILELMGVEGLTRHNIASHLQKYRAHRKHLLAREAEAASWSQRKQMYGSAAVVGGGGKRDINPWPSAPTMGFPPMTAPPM
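Also: rank-based score ranging −0.5 to +0.5 with E above 0.45 taken as significant binding.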

| Sequence | binding signal |
| --- | --- |
| ATTTCGAA | 0.316 E-score |
| CACACCGC | -0.182 E-score |
| ACCACCTA | -0.144 E-score |
| AACAAACG | 0.0695 E-score |
| AACGCGGA | -0.000563 E-score |
| ATCCAAGA | 0.217 E-score |
| ACTCTCAA | -0.184 E-score |
| AGTGTGGC | -0.181 E-score |
| ATGCATCC | -0.171 E-score |
| ACAGAAAC | 0.0167 E-score |
| CACTGTCC | -0.0677 E-score |
| AGGTACAT | -0.0849 E-score |
| AGAGCTGC | -0.132 E-score |
| ACAGCATG | -0.137 E-score |
| AAAGTGAG | -0.0345 E-score |
| CAACTCGA | -0.0359 E-score |
| AATCGCAC | 0.296 E-score |
| AATGACAT | 0.031 E-score |
| AAACTCAC | -0.141 E-score |
| ACGGTTGG | -0.00198 E-score |
| AAGAGAAA | 0.0302 E-score |
| AAGAACTC | -0.0904 E-score |
| AGAGTGAA | -0.13 E-score |
| AAATCCTT | 0.392 E-score |
| AGCGCACG | -0.298 E-score |

| Sequence | binding signal |
| --- | --- |
| AAAGGACC | -0.129 E-score |
| CAAAGCCC | -0.296 E-score |
| ACCACCTC | -0.245 E-score |
| AACAGTGT | -0.0872 E-score |
| AAAGAGAA | 0.0595 E-score |
| ACAATCGC | 0.195 E-score |
| AGATAAGC | 0.0217 E-score |
| AGTTTACA | -0.0263 E-score |
| ATTTTGCG | 0.293 E-score |
| ACATCAGA | 0.0735 E-score |
| ACGCTCCT | -0.0521 E-score |
| ACCTTAAG | -0.102 E-score |
| AGGGTTTG | -0.0538 E-score |
| AGGCATGA | -0.215 E-score |
| AAACTCAG | -0.0439 E-score |
| ATTGGCCC | -0.18 E-score |
| ACTCAGAC | -0.109 E-score |
| AGGTTCCG | -0.269 E-score |
| ACTACACG | 0.0585 E-score |
| ACCTAACA | -0.0737 E-score |
| ACATTGGG | -0.107 E-score |
| ACTTGTGG | -0.155 E-score |
| CACACTGA | 0.0127 E-score |
| AGGAACAC | -0.105 E-score |
| ACCGAGGT | -0.272 E-score |

| Sequence | binding signal |
| --- | --- |
| CAAGGCCG | -0.253 E-score |
| AGATGGGG | -0.229 E-score |
| AAGTCTGA | -0.167 E-score |
| AATTAACG | -0.000446 E-score |
| CAGCGGTC | -0.282 E-score |
| ATATTTAA | 0.248 E-score |
| AGTTTCAA | 0.00983 E-score |
| AAAAAACA | 0.0544 E-score |
| AAAGATGT | -0.0566 E-score |
| AACCTATG | -0.0262 E-score |
| CACCATTA | 0.00511 E-score |
| AGCGATTC | 0.253 E-score |
| AATAGGCG | -0.0906 E-score |
| AAGTTCGC | -0.0624 E-score |
| ACTGAGGG | -0.137 E-score |
| AGGGTGAG | -0.24 E-score |
| CACGGCAA | 0.0434 E-score |
| CAAGGTCC | -0.181 E-score |
| CAGCCAGC | -0.232 E-score |
| CAAGTGGC | -0.244 E-score |
| AGTACCGG | -0.236 E-score |
| ATGAGCGA | -0.0109 E-score |
| ATCATCTC | 0.126 E-score |
| AAAATCGG | 0.363 E-score |
| AGGTGTTC | -0.0481 E-score |

| Sequence | binding signal |
| --- | --- |
| CAAGACAC | -0.211 E-score |
| ATTCCCAA | 0.344 E-score |
| ATGGTGAA | 0.0127 E-score |
| AGGGGCAA | -0.137 E-score |
| CAGCGCAA | 0.175 E-score |
| ACTTCTCG | 0.0482 E-score |
| ACTCTCCA | -0.0331 E-score |
| ATACACGG | 0.0444 E-score |
| ATAGTGAG | 0.0895 E-score |
| AGGGCGAC | -0.182 E-score |
| AGACGGAT | 0.161 E-score |
| ACCCACAC | -0.0662 E-score |
| AACTAATG | -0.0154 E-score |
| AGGGGACA | -0.214 E-score |
| ACGACTGC | -0.112 E-score |
| AGGCTTGG | -0.265 E-score |
| ACTCGCCC | -0.146 E-score |
| CAAAAGTG | -0.115 E-score |
| AATAAAGT | 0.0436 E-score |
| ACAGAAGA | 0.131 E-score |
| CACATTAC | 0.0958 E-score |
| AACGTCTA | -0.143 E-score |
| CACTGAGA | 0.104 E-score |
| ACGCCCGA | -0.0754 E-score |
| ACCTAGTC | -0.178 E-score |

| Sequence | binding signal |
| --- | --- |
| AATTTAAA | 0.226 E-score |
| ACGTCCAT | -0.0411 E-score |
| ACTTGCCA | -0.0718 E-score |
| ATGGCGCG | -0.132 E-score |
| ACCACACA | -0.0288 E-score |
| ATCCTTAC | 0.266 E-score |
| ACATATCC | 0.214 E-score |
| ATTCTGAA | 0.187 E-score |
| AACGACAG | -0.0685 E-score |
| ACCCCGTC | -0.233 E-score |
| ACCGGGTC | -0.243 E-score |
| AATGGCTA | -0.0762 E-score |
| ATACGGAT | 0.331 E-score |
| AAACTTCC | -0.174 E-score |
| AATAAGGT | -0.113 E-score |
| ATTCAGTA | 0.141 E-score |
| AACACGGG | -0.0136 E-score |
| CAAGGGGG | -0.107 E-score |
| ACTATGAA | 0.0289 E-score |
| ACAAAGAA | 0.101 E-score |
| CAAATTCA | 0.203 E-score |
| AAATCAGT | 0.272 E-score |
| ATCCGTCA | 0.198 E-score |
| ACCGTTGC | -0.125 E-score |
| CACACACG | -0.191 E-score |

| Sequence | binding signal |
| --- | --- |
| CAAAGTCG | -0.125 E-score |
| ACATATCA | 0.216 E-score |
| ACTTTGAT | 0.036 E-score |
| ATAAAGTG | -0.0588 E-score |
| AGTACAGA | -0.00339 E-score |
| AGAGGGGA | -0.0871 E-score |
| AGAGAGTC | -0.182 E-score |
| AGCGGGGG | -0.279 E-score |
| ACTTGATG | -0.174 E-score |
| AGAAGATG | -0.0518 E-score |
| ACAAGAAA | 0.00851 E-score |
| AGGTCCGA | -0.0931 E-score |
| AAGGACGA | -0.0926 E-score |
| AATGATGC | -0.084 E-score |
| ACAGTGAT | 0.0821 E-score |
| AGACTACC | -0.143 E-score |
| AGCACCCC | -0.156 E-score |
| CAGCACTC | -0.0712 E-score |
| AATAGGAC | -0.12 E-score |
| ACTGACCT | -0.221 E-score |
| AGTTTTAC | 0.017 E-score |
| AACGGAGT | -0.114 E-score |
| AAGCTTTC | -0.088 E-score |
| AGCTTAGA | -0.0641 E-score |
| CAACGATA | 0.106 E-score |

| Sequence | binding signal |
| --- | --- |
| AGGGGAGA | 0.0253 E-score |
| AGATCTTC | 0.428 E-score |
| AGTCTCGC | -0.146 E-score |
| AGTTGCAC | -0.131 E-score |
| AGTTAACA | -0.00467 E-score |
| AGGATGAT | 0.0685 E-score |
| AGTTGATC | -0.104 E-score |
| ATTTTTGC | 0.0673 E-score |
| CAGACCTA | -0.137 E-score |
| CACATTTA | -0.0183 E-score |
| ATCAAGCA | 0.0915 E-score |
| AACTGAGA | -0.0451 E-score |
| CACAAGAG | 0.0235 E-score |
| ATCTTGCC | 0.261 E-score |
| ATTTATTA | 0.249 E-score |
| AACCGGAG | -0.149 E-score |
| AGTAAATC | 0.241 E-score |
| ACAGACAC | -0.0797 E-score |
| ATTCGATA | 0.239 E-score |
| ACGATAAT | 0.146 E-score |
| ACTACGTA | -0.102 E-score |
| ATCACAGA | 0.217 E-score |
